# Laboratory results published in the supplement of paper PMC3334620.
# Over roughly 33,000 sequences, “E-score (-0.5 to 0.5)” has its median near -0.056; the highest 2% begin near 0.38. The list shows a part of the results.
# Molecular target: Stb4 (UniProt P50104)
# Experiment: PBM E-score (8-mer binding enrichment) (E-score (-0.5 to 0.5)); higher = stronger / more preferred TF binding; most listed sequences are background and not binding sites
# Details: protein concentration: 200 nM; construct: GST-DNA-binding domain
# Outline: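 Universal all-10-mer Agilent arrays, double-stranded by primer extension on fresh or once-stripped slides, were probed with about 100-200 nM GST-tagged yeast transcription factors made by PURExpress. Fluorescent anti-GST detected bound protein, and masliner normalised the scans. E-scores from the Universal PBM Analysis Suite were given to each ungapped eight-base word pooled with its reverse complement.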
row,Sequence,PBM E-score
1,ACGTTATA,-0.0378
2,CCAGGATA,-0.118
3,CATGCGGA,0.262
4,AGTGCACC,0.0754
5,ACACACAG,-0.134
6,GTCTACTA,-0.152
7,ACAACGGC,0.108
8,ATGATGAG,-0.202
9,CAGCACGC,-0.0778
10,CGCACCCA,-0.0716
11,CGCTTCAG,-0.0149
12,GCACCTCA,-0.157
13,CATCTTAA,-0.202
14,AAATGACG,0.0141
15,CGAGGTAG,0.0549
16,CTCAACGC,-0.237
17,AACCTGAG,-0.0336
18,AAGCAACT,-0.139
19,CTATCGCC,-0.204
20,CGGTGATA,0.0637
21,AACCTCCC,0.0907
22,GGAATTTA,0.238
23,CAGATTCC,0.0937
24,CGCTAATC,0.109
25,CCGTTAGC,0.0906
26,AAAAAACG,0.13

row,Sequence,PBM E-score
1,CATGAGAG,-0.14
2,ACCCTCGC,-0.131
3,ATACAATA,0.203
4,GTGGATCA,-0.136
5,ACACCTCC,0.0307
6,AGGCGTTG,-0.0398
7,CTGATGAC,-0.197
8,ACCAATCT,0.0037
9,GCGGATGA,0.304
10,CACCTCAC,-0.0152
11,ATCAGAAG,-0.189
12,AGGCAGCG,-0.204
13,GCCGGACC,0.196
14,CTTGTATC,-0.0718
15,TGAGTGAA,-0.295
16,GATGTCCA,0.0495
17,CAAGGAAG,-0.0564
18,GAGATACC,0.0426
19,ATCCCTTG,-0.0393
20,GTAGGGCA,-0.135
21,AAATCGTG,0.0338
22,GTGAAAGA,0.0652
23,TACCGCGA,0.12
24,AGTAGTTG,-0.0656
25,CTGACCTC,-0.0404
26,GCCCAAGA,-0.0973

row,Sequence,PBM E-score
1,AAGATCCT,-0.106
2,AATTGAGG,-0.128
3,ATATATCA,-0.0782
4,ACCAAACT,0.0246
5,ACCATGAA,0.0113
6,GTGCATAA,-0.019
7,GTGGTCCA,-0.0876
8,ATGCCAGA,0.0106
9,CGGGCGCC,0.0786
10,AGTTGGCC,-0.129
11,GCTTCCAC,-0.0711
12,AATCACCC,0.0941
13,GCTGTAAC,0.051
14,AGAGGGGC,-0.152
15,AAAGATAC,-0.091
16,ACCGCCTC,0.0269
17,ACAGATCT,-0.207
18,AAGGTCGC,0.121
19,CTATTCAG,-0.288
20,AAGGCAAC,0.0357
21,ACGGGACA,0.276
22,CAGATTTA,-0.0167
23,TACCGCTA,-0.0725
24,TAGCCGAA,0.446
25,CGTGTGGA,0.0135
26,CTTAGTCC,0.056

row,Sequence,PBM E-score
1,TCACTAGA,-0.064
2,AGAACCGC,0.105
3,AGACACTC,-0.254
4,CAGTAATG,-0.287
5,GTCGCCGA,0.254
6,AACCCGTC,-0.0454
7,GCAGTAAC,-0.0988
8,ATACTCTA,0.00093
9,AAAAACTA,0.0629
10,GAGACACA,0.0418
11,ACTTCAAC,0.114
12,CATTCAAC,-0.218
13,ATTAGATG,0.0136
14,TTAAAGAA,-0.136
15,CATCCGGC,0.397
16,TAAGGGAA,-0.174
17,ACACCCAC,0.0222
18,CCTCGGCC,0.313
19,CGTTATAC,-0.142
20,AGTAACTA,0.13
21,CAAATAAG,-0.0233
22,GGGGGCAA,-0.0508
23,ACTCCCTG,-0.263
24,CAGACCTC,-0.129
25,AAGTCGTA,-0.207
26,ATATATCG,0.0307

row,Sequence,PBM E-score
1,CAGGGCAA,-0.128
2,AGTCAACA,-0.0722
3,AGAGCATC,0.0281
4,GGCGGCGA,0.0554
5,TACGGCGA,0.077
6,GTACAATA,-0.14
7,CCTATAAC,-0.284
8,CCGAGTAC,0.383
9,AGCATGGA,-0.0965
10,AGCGACAG,-0.094
11,CAAAATAG,0.00967
12,AAAAGTCT,-0.184
13,AACGTAAC,-0.0298
14,CATCAAGA,-0.0861
15,TGAATACA,0.0533
16,TGAGTTAA,-0.113
17,AATAAAGG,-0.193
18,AGCTCCTG,-0.175
19,AGAAGCCG,0.16
20,CCCAAGAG,-0.176
21,AGGGCACC,-0.0434
22,GCTAGTCA,-0.246
23,AGCGACTC,-0.109
